Source: PubChem BioAssay AID624296 (National Center for Advancing Translational Sciences (NCATS), 2012)
The campaign covered roughly 350,000 compounds. About 9,900 (2.8%) were called active. Inconclusive results, whose numbers are uncertain, are shown with a selection of clear calls. Calls come from the whole dose curve; as a rule, active = well fitted activation curve with a large enough effect; inconclusive = small, poorly fitted or top-dose-only effect; inactive = no such curve, though single readings can be large or run the other way. No potency is given beside an inconclusive call; the fits are too rough.

Experiment: A quantitative high throughput screen for small molecules that induce DNA re-replication in MCF 10a normal breast cells. For activity, positive = re-replication: % of control where 0% means no effect. Note: nearly all actives have a fitted effect of over 50% in size.
Settings: MCF 10A DNA re-replication, Hoechst nuclear intensity, 48 h; activity, positive = re-replication: at 46.1 µM (top of the series)
Potency is the fitted concentration of half-maximal effect; tags give direction and shape of the fitted curve.

SMILES | Potency | activity, positive = re-replication
COc1cc(NC(=O)c2cc3ccccc3o2)ccc1NC(=O)c1ccco1 | inconclusive [activator, single point] | –
Cc1c(Cl)cccc1NC(=O)CSc1ccc(-c2cccnc2)nn1 | inconclusive [activator, partial curve, poor fit] | –
C=CCn1c(=O)c(C(=O)Nc2ccccc2S(N)(=O)=O)c(O)c2ccccc21 | inconclusive [activator, partial curve, poor fit] | –
CCCC(=O)Nc1nc2ccc(S(=O)(=O)N3CCCCC3)cc2s1 | inconclusive [activator, partial curve] | –
Cc1ccc(-c2ccc(/C=N/N3C(=O)C4C5C=CC(C6CC56)C4C3=O)o2)c([N+](=O)[O-])c1 (stereo not drawn) | inconclusive [activator, full curve, poor fit] | –
CCOC(=O)Nc1ccc(Oc2ccccc2)cc1 | – | inactive: 8.21%
NS(=O)(=O)c1ccc(NC(=O)c2ccc(F)cc2F)c(NC(=O)c2ccc(F)cc2F)c1 | – | inactive: -5.04%
COc1cccc(CC2(CO)CCCN(Cc3ccccc3Cl)C2)c1 (stereo not drawn) | active: 4.61 µM | –
CC(C)c1ccc(/C=N/NC(=O)c2cccc(Cl)c2)cc1 | active: 5.8 µM | –
Cc1ccc(CN2C(=O)C[C@@H](NC(=O)OCC3c4ccccc4-c4ccccc43)C/C=C\C2c2ccc(C)cc2)cc1 (stereo partly drawn) | – | inactive: 4.48%
CN1CCN(C(=O)c2cnn(-c3ccccc3)c2NC(=O)c2ccccc2Br)CC1 | – | inactive: -3.21%
NNC(=O)c1cc(Cl)ccc1Cl | inconclusive [activator, partial curve, poor fit] | –
Cc1cc(N2CCCC2)c(F)cc1/C=C\[N+](=O)[O-] | inconclusive [activator, single point] | –
O=C1ON=C(c2ccccc2[N+](=O)[O-])/C1=C/c1cccc([N+](=O)[O-])c1O | – | inactive: -0.174%
O=C(CN1CCCCCCC1)Nc1ccc(Cl)cc1Cl | inconclusive [activator, partial curve, poor fit] | –
Cc1noc(NS(=O)(=O)c2ccc(N/C=C/C(=O)c3ccccc3)cc2)c1C | inconclusive [activator, single point] | –
C#C[C@]1(O)CC[C@@H]2[C@H]3CCC4=CCCC[C@@H]4[C@@H]3CC[C@@]21C | active: 10.1 µM | –
CCn1cc[n+](C)c1P(c1ccccc1)c1ccccc1 | – | inactive: -0.849%
O=C(C=Cc1ccccc1Cl)c1ccccc1 | inconclusive [activator, single point] | –
CC(C)(C)NC(=O)c1cccc(NC(=O)c2ccc3c(c2)C(=O)N(C(C)(C)C)C3=O)c1 | inconclusive [activator, single point] | –
O=C1/C(=C/c2ccccc2)NC(=S)N1C(c1ccccc1)c1ccccc1 | inconclusive [activator, partial curve, poor fit] | –
Cc1c(C(=O)Nc2ccccc2-c2ccccc2)cccc1[N+](=O)[O-] | – | inactive: 17.9%
COc1cc(-c2nc(-c3cccnc3)no2)cc(OC)c1OC | – | inactive: 2.36%
CCOC(=O)c1c(C)n2c3c(cc(C)cc13)CCC2 | inconclusive [activator, partial curve, poor fit] | –

SMILES | Potency | activity, positive = re-replication
COc1ccc(-c2cn(CCC(=O)NCc3ccc(C)cc3)c(CCN)n2)cc1 | inconclusive [activator, full curve, poor fit] | –
COc1ccc(NC(=O)CN(C)C(=O)C2=NN(c3ccccc3)C(=O)CC2)cc1 | – | inactive: 9.81%
Cc1ccccc1NC(=S)NCc1ccc2[nH]c3c(c2c1)CCCC3 | active: 6.51 µM | –
Cc1ccc2c(ccc[n+]2CC(=O)c2ccccc2)c1 | – | inactive: -3.22%
CCOCCc1nnc(NC(=O)CCS(=O)(=O)c2ccccc2)s1 | active: 20.6 µM | –
CSc1ccc(S(=O)(=O)NCC(=O)OCC(=O)N2CCCCC2C)cc1[N+](=O)[O-] (stereo not drawn) | – | inactive: 0.47%
Cc1cc(C)n2nc(SCC(=O)c3cc(C)n(-c4cc(C)on4)c3C)nc2n1 | inconclusive [activator, partial curve, poor fit] | –
O=[N+]([O-])c1ccc(Oc2cccc3cccnc23)c([N+](=O)[O-])c1 | active: 20.6 µM | –
COC(=O)c1cc(-c2c(C)oc3cc(OC(C)C)ccc3c2=O)c(C)o1 | inconclusive [activator, partial curve] | –
CCOc1ccc(NC(=O)c2sc3nc(C)nc(N4CCOCC4)c3c2C)cc1 | inconclusive [activator, single point] | –
CC(NC(=O)CNC(=O)c1cccc(Cl)c1)c1ccccc1 (stereo not drawn) | – | inactive: -3.44%
N#Cc1ccc(/C=C/C(=O)c2ccco2)cc1 | inconclusive [activator, single point] | –
COc1ccc(CN2C(=O)CSC2c2ccccn2)cc1 (stereo not drawn) | – | inactive: 1.54%
CCOc1ccc(OCC)c(-c2c(=O)n(OCc3ccccc3C(=O)OC)c3ccccc3[n+]2[O-])c1 | – | inactive: 3.95%
COc1ccc(/C=C2\N=C(C(C)(C)C)OC2=O)c(OC)c1 | active: 23.1 µM | –
O=C(O)c1c(-c2ccccc2)oc2ccc(O)cc12 | – | inactive: 0.0836%
Cc1ccc(C(C(=O)NC2CCCCC2)N(C(=O)Cc2c[nH]c3ccccc23)c2ccccc2C)o1 (stereo not drawn) | inconclusive [activator, single point] | –
Cc1cccc2c1N(C)C(=O)C2=O | inconclusive [activator, partial curve, poor fit] | –
COc1ccc(/C=C/C(=O)OCCC(C)C)cc1 | – | inactive: 14.1%
Cc1cc(Cl)c(OCCCSc2nc(C)cc(=O)[nH]2)c(Br)c1 | inconclusive [activator, partial curve] | –
COc1cc(C(=O)OCc2ccc(C)cc2)cc(NC(=O)c2cccs2)c1OC | active: 23.1 µM | –
Cc1ccc(O)c(C(=O)c2cnc3c(c2)c(-c2ccc(F)cc2)c(C#N)c(=O)n3C)c1 | – | inactive: -6.78%
Cc1ccc(-c2csc(NC(=O)CCNC(=O)c3ccco3)n2)cc1 | – | inactive: -1.4%
CSc1ccc(S(=O)(=O)Nc2ccc(N3CCOCC3)c(Cl)c2)cc1 | inconclusive [activator, single point] | –
